# Data taken from PMC6919601, “Identification of Plasmodium dipeptidyl aminopeptidase allosteric inhibitors by high throughput screening” (PLoS ONE, 2019).
# About 230 (0.21%) of roughly 110,000 compounds showed an effect of 50% or more. The list shows a part of the results.
# Biological target: DPAP1 (Plasmodium falciparum, UniProt Q8IIJ9)
# Experiment: primary screen, percent inhibition; read by cleavage of a fluorogenic dipeptide substrate; higher = more effect of the substance
# Parameters: species or system P. falciparum D10 trophozoite lysates; single well
# 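Note: 30 min substrate incubation versus DMSO and 10 µM JCP410 controls.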
# DPAP1, sequence (Q8IIJ9 whole entry, looked up): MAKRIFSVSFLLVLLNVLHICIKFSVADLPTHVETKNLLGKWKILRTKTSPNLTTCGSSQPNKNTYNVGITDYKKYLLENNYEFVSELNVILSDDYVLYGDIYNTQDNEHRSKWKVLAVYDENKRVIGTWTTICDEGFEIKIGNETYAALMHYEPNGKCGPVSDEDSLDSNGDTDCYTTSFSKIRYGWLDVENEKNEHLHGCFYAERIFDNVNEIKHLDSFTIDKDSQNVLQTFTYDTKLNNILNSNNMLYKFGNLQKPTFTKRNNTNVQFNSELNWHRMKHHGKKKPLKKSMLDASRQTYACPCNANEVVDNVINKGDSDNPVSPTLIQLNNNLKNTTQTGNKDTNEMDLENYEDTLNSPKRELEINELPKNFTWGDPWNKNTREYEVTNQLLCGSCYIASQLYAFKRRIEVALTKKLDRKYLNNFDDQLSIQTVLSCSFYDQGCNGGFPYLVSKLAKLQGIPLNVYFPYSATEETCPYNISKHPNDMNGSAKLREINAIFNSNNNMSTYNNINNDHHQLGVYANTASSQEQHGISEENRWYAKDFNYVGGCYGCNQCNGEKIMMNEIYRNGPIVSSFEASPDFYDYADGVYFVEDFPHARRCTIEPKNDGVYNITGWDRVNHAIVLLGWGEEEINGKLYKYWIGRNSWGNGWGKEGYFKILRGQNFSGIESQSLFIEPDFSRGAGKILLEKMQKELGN
row,SMILES,% Inhibition @ 10 uM [%]
1,CC(C)C[C@H](NC(=O)OCc1ccc(-c2ccccc2)cc1)C(=O)NCC#N,0.174
2,O=c1cc2nc(-c3ccccc3)nc(SCCCOc3ccccc3)n2[nH]1,-5.72
3,CC1SC2(C(=O)Nc3ccccc32)N(c2cccc(F)c2)C1=O (stereo not drawn),2.09
4,CC(C)CNC(=O)c1ccc(C2SCC(=O)N2CCc2ccccc2)cc1 (stereo not drawn),0.475
5,CC1CCCCN1CCNC(=O)C1CCCN(c2ncnc3c2nc2n3CCCCC2)C1 (stereo not drawn),-1.96
6,CCN(C(C)=O)C1=C(O)C(=O)c2ccccc2C1=O,-0.597
7,Cc1ccn2c(=O)c(C(=O)NCc3ccccc3)cnc2c1,0.0579
8,Cc1cc(C)c2c(-n3cccc3)c(C(=O)N3CCc4ccccc4C3)sc2n1,0.623
9,CC(C)C(NS(=O)(=O)c1cccs1)C(=O)NC1CCCc2ccccc21 (stereo not drawn),2.65
10,CC(C)NC(=O)CN(c1ccccc1Cl)S(=O)(=O)c1ccccc1,-1.61
11,COc1ccc(C(C)=O)cc1N1C(=O)C2C3C=CC(CO)(O3)C2C1=O (stereo not drawn),-2.03
12,COc1ccc2nc(SCCc3ccccc3)nc(C)c2c1,2.26
13,O=C(O)CCNc1c(C(=O)O)cnc2ccccc12,-7.35
14,Cc1cnn(-c2nc(-c3ccccc3)cc(-c3ccc(F)cc3)n2)c1,2.65
15,CCN1CCc2nc3sc(C(=O)N4CCc5ccccc5C4)c(N)c3cc2C1,-0.222
16,CCOCCCN(Cc1ccco1)C(=O)c1cc2c(s1)-c1ccccc1S(=O)(=O)C2,-2.45
17,CSc1ccc(CCNC(=O)C2CCCN(S(=O)(=O)N3CCC4(CC3)OCCO4)C2)cc1 (stereo not drawn),-7.21
18,O=C(Cc1ccc(-c2ccccc2)cc1)Nc1ccc(F)cc1F,-6.01
19,O=[N+]([O-])c1ccc(S(=O)(=O)N2CCc3ccccc3C2)cc1,-0.351
20,Cc1nc(NC(=O)c2ccc(Cl)c(Cl)c2)sc1C(=O)N(C)C,3.9
21,Cc1ccc(N2CCN(S(=O)(=O)N3CCCCC3)CC2)cc1Cl,-3.25
22,Cc1ccccc1C(O)(Cc1ccccc1)C1CN2CCC1CC2 (stereo not drawn),-2.99
23,Cc1ccc(OCC(=O)Nc2nccs2)c(Br)c1,4.35
24,CCNC(=O)c1snc(Nc2ncc(C)o2)c1N,-11.4
25,CN(C(=O)c1ccoc1)c1ccc2ccccc2c1,-1.99
26,Nc1ccc(Oc2ccc(Cl)cc2)cc1,-9.91

row,SMILES,% Inhibition @ 10 uM [%]
1,CC1CCN(S(=O)(=O)c2ccc(NS(=O)(=O)c3ccc(Cl)cc3)cc2)CC1,10.5
2,CC(=O)Nc1ccc(NC(=O)c2noc3c2COc2ccc(C)cc2-3)cn1,-5.92
3,CCC(=O)Nc1sc2c(c1C(=O)Nc1ccccc1Cl)CCCC2,29.5
4,CC(C)(C)C1CCC(N2CCCC(CO)C2)CC1 (stereo not drawn),-1.21
5,CC(C)OCCCNC(=O)C1c2ccccc2C(=O)N(C)C1c1cccs1 (stereo not drawn),-7.1
6,COc1cc(CNC23CC4CC(C)(CC(C)(C4)C2)C3)ccc1OCC(=O)NC(C)(C)C,-7.9
7,CCOCCCNC(=O)c1cc(-c2cccnc2)nc2ccc(S(=O)(=O)N3CCC(C)CC3)cc12,0.718
8,COc1cccc(S(=O)(=O)NCC(=O)N2CCCCC2C)c1 (stereo not drawn),-0.95
9,Cc1cc2c(c(SCC(N)=O)n1)C(=O)OC2,0.9
10,O=C(Nc1nnc(COc2ccccc2)s1)c1ccc(F)cc1,5.94
11,O=C(CN1C(=O)c2cccc3cccc(c23)C1=O)NCCCN1CCOCC1,4.22
12,Clc1ccc(CN2CCN(Cc3ccccc3)CC2)c(Cl)c1,-3.56
13,Cc1cccc(C)c1NC(=O)CN1C(=O)S/C(=C/c2ccc3c(c2)n(C)c(=O)n3C)C1=O,-0.0938
14,COc1cccc(C(=O)Nc2nc(-c3nnn(-c4cccc(F)c4)c3C)ns2)c1,-4.94
15,c1ccc(N2CCN(c3ccc4nncn4n3)CC2)nc1,-0.692
16,COC(=O)c1c(C)oc2cc(Br)c(OCC(=O)c3ccc(OC)cc3)cc12,-5.92
17,CCNC(=O)CSc1nnc(C)c2c(C)n(-c3ccccc3)nc12,2.9
18,CCOC(=O)c1nc(NCC(C)O)c2ccccc2n1 (stereo not drawn),-1.81
19,CCN(CC)c1ccc(CN2CCOCC2)cc1,-0.0494
20,Cc1c(C=O)c2ccccc2n1CC(=O)N1CCCCCC1,-0.703
21,C=CCN(CC=C)C(=O)CSc1nc(C)cc(COC)c1C#N,-1.85
22,CN(C(=O)/C=C/c1ccccc1Cl)C1CCCCC1,-0.569
23,CCOc1ccc(OCc2cccc(C(=O)N3CCOCC3)c2)cc1,-5.85
24,COc1ccc(S(=O)(=O)N2CCC(C(=O)N3CCCCCC3)CC2)cc1OC,-5.48
25,O=C(CN1CCC2(CC1)OCCO2)c1ccc2cc[nH]c2c1,3.96
26,COCCNCc1c(C(=O)O)c(C)n(Cc2ccccc2F)c1C,-1.92

row,SMILES,% Inhibition @ 10 uM [%]
1,Cc1ccc2c(c1)-c1c(cnn1CC(=O)Nc1ncccc1C)CO2,-7.13
2,O=C(Nc1nc(-c2ccccc2)cs1)c1cc2ccccc2oc1=O,0.219
3,CCCC(=O)NC(C)Cc1c[nH]c2ccccc12 (stereo not drawn),9.65
4,Cc1c(C(=O)N2CC(C)CC(C)C2)oc2ccc(S(=O)(=O)N3CCC4(CC3)OCCO4)cc12 (stereo not drawn),11.5
5,Cn1c(=O)c2c(-c3ccccc3Cl)n(Cc3ccccc3)cc2n(C)c1=O,-3.12
6,Cc1ccc(CCn2c(C)c(CC#N)c3ccccc32)cn1,-0.744
7,Cc1cc(C)c2c(n1)nn1c(C)c(CCC(=O)NCc3cccnc3)c(C)nc21,-6.33
8,CC(C)(C)c1ccc(C2=NC3(CCN(C(=O)c4ccc(F)cc4)CC3)NC2=O)cc1,-2.98
9,CCC(C)C(NC(=O)C1CCC(C)CC1)C(=O)NCCCN1CCCCC1CC (stereo not drawn),2.64
10,CCOC(=O)C1=C(c2ccccc2)Nc2ncnn2C1c1cccc(O)c1 (stereo not drawn),3.8
11,CCCN1C(=O)S/C(=C\c2ccc(Cl)cc2)C1=O,-2.37
12,Cc1ccc2nc(NCc3ccco3)c(/C=C3\SC(=S)NC3=O)c(=O)n2c1,-3.14
13,Cc1c(C(c2ccc(-c3ccc(Br)cc3)o2)c2c(C)n(C)n(-c3ccccc3)c2=O)c(=O)n(-c2ccccc2)n1C,0.215
14,Cn1cc(Br)c(C(=O)N2CCc3ccccc32)n1,-0.864
15,Cc1[nH]c2ccccc2c1CN1CCc2ccccc2C1,-0.127
16,O=C1CC(c2ccccc2C(F)(F)F)C2=C(CC(c3ccccc3Cl)CC2=O)N1 (stereo not drawn),4.23
17,O=C(O)Cn1cnc2scc(-c3ccc(Br)cc3)c2c1=O,-7.3
18,CCOC(=O)c1c(C)[nH]c(C)c1S(=O)(=O)NC(C)CCc1ccccc1 (stereo not drawn),-4.21
19,CC(C)CC(=O)NC1(C(F)(F)F)C(=O)Nc2c1c(=O)n(C)c(=O)n2C (stereo not drawn),9.28
20,Cc1ccc2oc(C(=O)Nc3nnc(C)s3)cc(=O)c2c1,1.9
21,CN(CCc1ccccn1)Cc1ccc(F)cc1,1.29
22,COc1ccccc1C(=O)Nc1cccc(SC)c1,1.43
23,N#CC1(NC(=O)[C@@H]2CCCC[C@@H]2CSc2ccc(F)cc2)CC1,1.7
24,COc1cc(C2=NOC(C(=O)NC(C)c3ccccc3)C2)cc(OC)c1OC (stereo not drawn),4.41
25,CCCN(CCO)Cc1ccc(C(C)C)cc1,-9.33
26,CO/C(O)=C1\C(C)=NC2=C(C(=O)CCC2)C1c1cccc(Cl)c1 (stereo not drawn),-1.82

row,SMILES,% Inhibition @ 10 uM [%]
1,CSc1cccc(-n2nnc(-c3nsc(NC(=O)c4cccc(Cl)c4)n3)c2C)c1,0.399
2,COc1ccccc1-c1nnc2sc(COc3cccc(C)c3)nn12,-0.45
3,O=C(NCCN1CCOCC1)c1cc(Sc2ccccc2Cl)nc2ccccc12,10.3
4,Cc1nc(O)c2c(n1)OC(N)=C(C#N)C2c1ccc(Cl)cc1Cl (stereo not drawn),-0.631
5,COc1cc(NC(=O)CCc2ccccc2)nc(OC)n1,-1.03
6,O=C(Nc1ccc(O)cc1)C1Cc2ccccc2CN1S(=O)(=O)c1cccs1 (stereo not drawn),3.17
7,COCc1cc(C)nc(SCC(=O)Nc2ccc(Br)cc2)c1C#N,4.33
8,CCOc1ccccc1C1N(c2nccs2)C(=O)C2CCCN21 (stereo not drawn),-6.06
9,O=C(O)c1ccc(CNCc2cccc(Cl)c2)s1,2.65
10,COc1ccc(OC)c(C2CC(=O)N=C(NC(=O)c3ccc(Oc4ccccc4)cc3)N2)c1 (stereo not drawn),-2.44
11,CC(C(=O)NCCN1CCOCC1)n1c2ccccc2c2cnnc(O)c21 (stereo not drawn),4.36
12,Cc1ccn2c(NC(=O)CC(C)(C)C)c(-c3ccccc3)nc2c1,5.4
13,CC(C)N1C(=O)CCC1C(=O)NCCc1ccccc1 (stereo not drawn),-1.34
14,CCOc1cc(C2NCCc3c2[nH]c2ccccc32)ccc1O (stereo not drawn),2.41
15,CC1=CC(C)C(CNCc2ccco2)C(C)C1 (stereo not drawn),2.62
16,COc1ccc2c(CNC3CCCCCC3)c(C(=O)O)n(C)c2c1,-0.677
17,CCOC(=O)c1[nH]c2ccccc2c1NC(=O)CC(C)(C)C,-2.74
18,CN(C)c1nc(NC(C)(C)C)nc(Oc2ccc(=O)n(C)n2)n1,-1.31
19,OCC1CCCN(CC2CC3C=CC2C3)C1 (stereo not drawn),5.01
20,Cn1cc(C(=O)C(=O)NCCOc2ccccc2Cl)c2ccccc21,2.99
21,OCC1CCCN(Cc2cccc(Cl)c2)C1 (stereo not drawn),5.03
22,Oc1ccc(-c2csc(-c3c[nH]c4ccccc34)n2)cc1O,3.47
23,CCC(=O)N1N=C(c2ccccc2)CC1c1ccc(Br)cc1 (stereo not drawn),-2.6
24,CCC[C@@H](/C=C/S(=O)(=O)c1ccccc1)NC(=O)[C@H](CSCc1ccccn1)NC1=NS(=O)(=O)c2ccccc21,-3.34
